# The supplement of paper PMC8728848
# Some of the results follow.
# Assays:
# Test in all cases: glycan array binding signal (z-score within array); higher = stronger binding
# Conditions in all cases: glycan notation: IUPAC condensed, linker removed
# [1] = biological target: Neu5Ac(a2-8)Neu5Ac
# Summary of the method: (§1)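 Glycan array data came from 3228 arrays in the Consortium for Functional Glycomics database, and only arrays with an available protein sequence were kept. Glycan names were put into IUPAC-condensed notation, and columns mapping to the same glycan were averaged. The binding signal is a within-array Z-score, averaged across arrays of one protein sequence run at different concentrations or buffers and across linkers. A negative Z-score can be read as non-binding.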
# [2] = biological target: Neu5Ac(a2-8)Neu5Ac(a2-3)Gal(b1-3)GalNAc(b1-4)[Neu5Ac(a2-3)]Gal(b1-4)Glc
# Summary of the method: as §1
# [3] = biological target: Neu5Ac(a2-8)Neu5Ac(a2-3)Gal(b1-3)GalNAc(b1-4)[Neu5Ac(a2-8)Neu5Ac(a2-3)]Gal(b1-4)Glc
# Summary of the method: as §1
# [4] = biological target: Neu5Ac(a2-8)Neu5Ac(a2-3)Gal(b1-4)Glc
# Summary of the method: as §1
# [5] = biological target: Neu5Ac(a2-8)Neu5Ac(a2-3)Gal(b1-4)GlcNAc
# Summary of the method: as §1
# [6] = biological target: Neu5Ac(a2-8)Neu5Ac(a2-3)[Gal(b1-3)GalNAc(b1-4)]Gal(b1-4)Glc
# Summary of the method: as §1
# [7] = biological target: Neu5Ac(a2-8)Neu5Ac(a2-3)[GalNAc(b1-4)]Gal(b1-4)Glc
# Summary of the method: as §1
# [8] = biological target: Neu5Ac(a2-8)Neu5Ac(a2-8)Neu5Ac
# Summary of the method: as §1
# [9] = biological target: Neu5Ac(a2-8)Neu5Ac(a2-8)Neu5Ac(a2-3)Gal(b1-4)Glc
# Summary of the method: as §1
# [10] = biological target: Neu5Ac(a2-8)Neu5Ac(a2-8)Neu5Ac(a2-3)[Gal(b1-3)GalNAc(b1-4)]Gal(b1-4)Glc
# Summary of the method: as §1
# [11] = biological target: Neu5Ac(a2-8)Neu5Ac(a2-8)Neu5Ac(a2-3)[GalNAc(b1-4)]Gal(b1-4)Glc
# Summary of the method: as §1
# [12] = biological target: Neu5Ac(a2-8)Neu5Ac(a2-8)Neu5Ac(a2-8)Neu5Ac(a2-3)[GalNAc(b1-4)]Gal(b1-4)Glc
# Summary of the method: as §1
# [13] = biological target: Neu5Ac(a2-8)Neu5Gc(a2-3)Gal(b1-4)GlcNAc
# Summary of the method: as §1
# [14] = biological target: Neu5Ac(b2-6)Gal(b1-4)GlcNAc
# Summary of the method: as §1
# [15] = biological target: Neu5Ac(b2-6)GalNAc
# Summary of the method: as §1
# [16] = biological target: Neu5Ac9Ac(a2-3)Gal(b1-3)GlcNAc
# Summary of the method: as §1
# [17] = biological target: Neu5Ac9Ac(a2-3)Gal(b1-4)GlcNAc
# Summary of the method: as §1
# [18] = biological target: Neu5Ac9Ac(a2-6)Gal(b1-4)GlcNAc
# Summary of the method: as §1
# [19] = biological target: Neu5Gc(a2-3)Gal(b1-3)GlcNAc
# Summary of the method: as §1
# [20] = biological target: Neu5Gc(a2-3)Gal(b1-3)[Fuc(a1-4)]GlcNAc
# Summary of the method: as §1
# [21] = biological target: Neu5Gc(a2-3)Gal(b1-4)Glc
# Summary of the method: as §1
# [22] = biological target: Neu5Gc(a2-3)Gal(b1-4)GlcNAc
# Summary of the method: as §1
# [23] = biological target: Neu5Gc(a2-3)Gal(b1-4)GlcNAc(b1-3)Gal(b1-4)GlcNAc(b1-2)Man(a1-3)[Neu5Gc(a2-3)Gal(b1-4)GlcNAc(b1-3)Gal(b1-4)GlcNAc(b1-2)Man(a1-6)]Man(b1-4)GlcNAc(b1-4)GlcNAc
# Summary of the method: as §1
# [24] = biological target: Neu5Gc(a2-3)Gal(b1-4)[Fuc(a1-3)]GlcNAc
# Summary of the method: as §1
# [25] = biological target: Neu5Gc(a2-6)Gal(b1-4)GlcNAc
# Summary of the method: as §1
# [26] = biological target: Neu5Gc(a2-6)GalNAc
# Summary of the method: as §1
# [27] = biological target: Neu5Gc(a2-8)Neu5Ac(a2-3)Gal(b1-4)GlcNAc
# Summary of the method: as §1
# [28] = biological target: Neu5Gc(a2-8)Neu5Gc(a2-3)Gal(b1-4)GlcNAc
# Summary of the method: as §1
# [29] = biological target: Neu5Gc(a2-8)Neu5Gc(a2-3)Gal(b1-4)GlcNAc(b1-3)Gal(b1-4)GlcNAc
# Summary of the method: as §1
# [30] = biological target: Neu5Gc(a2-8)Neu5Gc(a2-6)Gal(b1-4)GlcNAc
# Summary of the method: as §1
# [31] = biological target: Neu5Gc(b2-6)Gal(b1-4)GlcNAc
# Summary of the method: as §1
binder,measurement,setting,value
PX9961V-pdi-562-26-562 (Parabacteroides distasonis) (protein) EIFSEITTDNYYQNSNNIYAALVNNYAKAFSTGWSDARYFLQEVTADQLMIPTRGKHGYNGGEYVRLHEHKWTVEENFVYNGWAAPFQGIALCNNTLSDFENLDFSTFKLTEETKNEYIAELRALRVWNYMFLIDFFRHVPIVTDIEEVKAQSTPLEVFNFMESELLAILPDLPKNRGVSRFDQAGVASILVRLYLNAEKWIGISKYDECEQMAQAILDGKYGEYSIDPDYRGPFRSGINGYRSKENIMEFAIKKNYFEASWLYNMWMHYQDRYSLDNDWQGWNGGNLAPSRDLYGNLYQDKLGMPFEKFPDGDIRKKAFRVISNDGDYEGFFLMGTQYKFDYEKGYGFTDEVITGTEEYNGKPLVYVDQVGRFSEGETGLAKGSHVIYGEENTGYRLIKFPWLPQSKDLFQMNSIPEIRLAEIYYSLAECKYRSGDKIGAARLLDVVRKRYYKAEDWSKFSYESNISKLTDDEFVDELGREFIGERHRRIDLIRWNRFSEGAWWDKTPDATNQDVFPIPYRALNANPLLKQTTAGF,glycan array binding signal (z-score),[1],-0.274
same,glycan array binding signal (z-score),[2],-0.606
same,glycan array binding signal (z-score),[3],0.306
same,glycan array binding signal (z-score),[4],-0.607
same,glycan array binding signal (z-score),[5],-0.574
same,glycan array binding signal (z-score),[6],0.136
same,glycan array binding signal (z-score),[7],-0.364
same,glycan array binding signal (z-score),[8],-0.656
same,glycan array binding signal (z-score),[9],-0.576
same,glycan array binding signal (z-score),[10],0.05
same,glycan array binding signal (z-score),[11],-0.652
same,glycan array binding signal (z-score),[12],0.683
same,glycan array binding signal (z-score),[13],2.96
same,glycan array binding signal (z-score),[14],0.773
same,glycan array binding signal (z-score),[15],-0.409
same,glycan array binding signal (z-score),[16],-0.712
same,glycan array binding signal (z-score),[17],-0.389
same,glycan array binding signal (z-score),[18],-0.56
same,glycan array binding signal (z-score),[19],-0.579
same,glycan array binding signal (z-score),[20],-0.515
same,glycan array binding signal (z-score),[21],-0.025
same,glycan array binding signal (z-score),[22],0.017
same,glycan array binding signal (z-score),[23],-0.054
same,glycan array binding signal (z-score),[24],-0.162
same,glycan array binding signal (z-score),[25],-0.522
same,glycan array binding signal (z-score),[26],-0.458
same,glycan array binding signal (z-score),[27],-0.485
same,glycan array binding signal (z-score),[28],-0.391
same,glycan array binding signal (z-score),[29],-0.604
same,glycan array binding signal (z-score),[30],-0.086
same,glycan array binding signal (z-score),[31],-0.322
